121 sequences from the supplement of paper PMC10126150 can be followed below.

Values marked as one replicate rest on one cluster of the flow cell; about a third of the high ones do not repeat.

This data set deals with ATP. The data set is described as follows: switch fluorescence ratio, 500 uM ATP over buffer (Cy3 cluster intensity, sum of 5 cycles each) (fold (ratio)); higher = stronger signal-on switching upon ATP binding; sequences stand for … in TCGTCGGCAGCGTCAGATGTGTATAAGAGACAGTTTTTTTTTTTTTTTTTTTTTTTTT…TC. As to conditions: aptamer strand: ATP DNA aptamer (quencher-CACCTGGGGGAGTATTGCGGAGGAAGG + anchor), 100 nM annealed; ATP concentration: 500 uM; one replicate. The method, boiled down:
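Exposure to 500 uM ATP lasted 15 min at 22 °C before imaging, and a selection-buffer image was taken beforehand, for Cy3-labelled switching-strand clusters on a modified Illumina MiSeq flow-cell annealed to 100 nM quencher-labelled ATP aptamer. Five buffer/ATP cycles were run with NaOH stripping and re-annealing between them. The fluorescence ratio per cluster is summed target-cycle over summed buffer-cycle Cy3 intensity, averaged per switch-domain sequence. Clusters outside 100-1000 RFU were excluded.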
ACCACCACCA: the switch fluorescence ratio is 1.36.

On to GAAGCTCAGG, for which the switch fluorescence ratio came to 1.13.

Take GACAGTGTGT: the switch fluorescence ratio amounted to 1.

As to TTATATGAAG, the switch fluorescence ratio worked out at 1.03.

For ACTTCAAGAC, the switch fluorescence ratio amounted to 1.74.

Take CACATATT: the switch fluorescence ratio is 1.07.

On to AGTGGAACGG, for which the switch fluorescence ratio came to 1.

Take AGGTCGGCGA: the switch fluorescence ratio turned out to be 1.03.

With AGTTCCAAT, the switch fluorescence ratio was 0.982.

Turning to TTACAGAAAT, the switch fluorescence ratio came out at 1.12.

As for TGTATGGTAT, the switch fluorescence ratio stood at 1.02.

As to AAAGCTTCTG, the switch fluorescence ratio is 1.04.

For the sequence TACGTATGTG, the switch fluorescence ratio was 1.02.

In the case of ACAAAACCGC, the switch fluorescence ratio turned out to be 1.24.

AGCAAATCTA: the switch fluorescence ratio came out at 1.06.

Take TACCTTTTAT: the switch fluorescence ratio is 1.04.

For CTGGAACAAA, the switch fluorescence ratio was 1.02.

For GTGTTCCCGG, the switch fluorescence ratio came out at 0.992.

For the sequence TTAATAGC, the switch fluorescence ratio turned out to be 1.06.

TTACTACGCT: the switch fluorescence ratio is 2.24.

TGGCGATTTA: the switch fluorescence ratio was found to be 0.979.

Turning to TCTCCTTCTT, the switch fluorescence ratio amounted to 1.41.

As to AAACGGTAT, the switch fluorescence ratio is 1.09.

Take GAAGGCTGGG: the switch fluorescence ratio came out at 1.01.

ACGAATTATG: the switch fluorescence ratio was 1.02.

Regarding TGACGTATC, the switch fluorescence ratio was determined as 1.06.

Take TATCTTAGCT: the switch fluorescence ratio came out at 1.03.

On to GTTTCAAAGA, for which the switch fluorescence ratio worked out at 1.03.

TCTAATGGTG: the switch fluorescence ratio was 1.

As for GCTACTTACC, the switch fluorescence ratio stood at 1.33.

Turning to CGCTCCGGAT, the switch fluorescence ratio was determined as 1.21.

In the case of ATCCCGGTTA, the switch fluorescence ratio is 1.02.

As for CAGGAATCGT, the switch fluorescence ratio stood at 0.996.

Take CAATATCCTA: the switch fluorescence ratio is 0.982.

Turning to TTTCTGGGT, the switch fluorescence ratio amounted to 1.02.

Take AGAGACATA: the switch fluorescence ratio worked out at 1.01.

As to CTCTCGTAGT, the switch fluorescence ratio came to 0.987.

As to GGTGAGGATC, the switch fluorescence ratio is 0.976.

Take AATCAACTCG: the switch fluorescence ratio came to 1.01.

Regarding CCAGCTCATA, the switch fluorescence ratio worked out at 1.09.

ATATTCCCGG: the switch fluorescence ratio came out at 1.05.

As to GATATTTTCC, the switch fluorescence ratio amounted to 1.04.

In the case of GGCCGGACTA, the switch fluorescence ratio turned out to be 1.02.

As for TTTTGTCCAC, the switch fluorescence ratio came to 1.04.

As for TCGTGTCGTT, the switch fluorescence ratio was determined as 0.958.

On to TGAGAGTT, for which the switch fluorescence ratio stood at 1.

With GATAATGTCT, the switch fluorescence ratio worked out at 0.985.

Regarding TGGATGTCGG, the switch fluorescence ratio came to 0.976.

As for CATGGTTATT, the switch fluorescence ratio stood at 1.05.

For TACGGGTCT, the switch fluorescence ratio came out at 1.06.

Take TCATCGGACA: the switch fluorescence ratio turned out to be 0.999.

Regarding AGGGCGCCA, the switch fluorescence ratio came out at 1.01.

For the sequence GGGAACGTCA, the switch fluorescence ratio was determined as 1.01.

In the case of TCTGGGGT, the switch fluorescence ratio worked out at 0.969.

For TTAATACGCG, the switch fluorescence ratio amounted to 1.17.

Consider TCTTTCCCCT, for which the switch fluorescence ratio amounted to 1.2.

In the case of TTTTGGTGCA, the switch fluorescence ratio was found to be 0.994.

As to CTCTGAGGG, the switch fluorescence ratio is 1.45.

Regarding GTAGATAGGA, the switch fluorescence ratio is 1.05.

On to TAGGCCTAC, for which the switch fluorescence ratio stood at 1.03.

As for CCCCGGCGAC, the switch fluorescence ratio was 4.87.

Consider AATCGCTTAC, for which the switch fluorescence ratio worked out at 4.19.

As for CTACGTGAGT, the switch fluorescence ratio was 1.01.

With AGATAAATGG, the switch fluorescence ratio was 0.973.

Take AACATCGTTG: the switch fluorescence ratio turned out to be 0.972.

Regarding CGAGTGTGCG, the switch fluorescence ratio was 1.02.

On to GGAAACGCAT, for which the switch fluorescence ratio was 1.35.

Turning to GAGACACAGA, the switch fluorescence ratio stood at 1.1.

As for GATCTAGGGA, the switch fluorescence ratio was 0.988.

GGGGACTTCA: the switch fluorescence ratio was found to be 1.06.

With TTTAACCTCG, the switch fluorescence ratio came to 1.02.

As for CGGCAAACCT, the switch fluorescence ratio came out at 2.53.

TGTGGCGGA: the switch fluorescence ratio was 1.01.

For ACCTAATTTT, the switch fluorescence ratio came to 1.02.

As for GCCGCGGACA, the switch fluorescence ratio was determined as 0.953.

With GCATGGAAGT, the switch fluorescence ratio was 0.999.

With TCGATTTAGG, the switch fluorescence ratio was 0.984.

Turning to ATGTTCGCTA, the switch fluorescence ratio was determined as 1.06.

Turning to AACGCCCTTC, the switch fluorescence ratio was 1.61.

In the case of TGATTGGCGT, the switch fluorescence ratio amounted to 1.01.

For GATGCATTT, the switch fluorescence ratio was found to be 0.946.

In the case of TAGAAGTGGG, the switch fluorescence ratio is 0.972.

With GCCTCATCTG, the switch fluorescence ratio is 0.946.

With AAATCTAAG, the switch fluorescence ratio is 0.989.

On to ATTGTTCTAG, for which the switch fluorescence ratio turned out to be 0.991.

For the sequence CAAGTGAGTA, the switch fluorescence ratio came to 0.998.

As for GGAAACGCTA, the switch fluorescence ratio is 1.26.

For AGTAGGCCGG, the switch fluorescence ratio came out at 1.03.

Regarding TTTAGAAGAG, the switch fluorescence ratio came out at 1.03.

Turning to ACTTCCGTTG, the switch fluorescence ratio was 1.59.

In the case of CCAACGGGCT, the switch fluorescence ratio was determined as 1.03.

Turning to AGGTCCACGT, the switch fluorescence ratio was 0.889.

For TCTAAGCAAT, the switch fluorescence ratio came out at 2.84.

TGGGGTTTTA: the switch fluorescence ratio turned out to be 0.985.

For GAGCTCAGA, the switch fluorescence ratio turned out to be 0.975.

As for CTGCCAAACT, the switch fluorescence ratio came to 1.1.

With TGCCAATGTA, the switch fluorescence ratio came out at 0.967.

For TTTGTATTAA, the switch fluorescence ratio worked out at 0.964.

As to CTACTTGGGT, the switch fluorescence ratio worked out at 1.04.

Turning to AGGAGGATAA, the switch fluorescence ratio is 1.01.

On to TATCCCGCAT, for which the switch fluorescence ratio worked out at 4.96.

Turning to TGATTTCATA, the switch fluorescence ratio was 1.01.

For AGAAAATGAA, the switch fluorescence ratio worked out at 1.04.

Consider GGCGCTCGTG, for which the switch fluorescence ratio came to 0.993.

For the sequence AATTATTACC, the switch fluorescence ratio was 1.05.

As to TCTTGGATAG, the switch fluorescence ratio stood at 0.987.

Regarding TAATAGGGAG, the switch fluorescence ratio is 0.999.

In the case of ACAAGCGGAG, the switch fluorescence ratio is 0.97.

Turning to ACTGCTTGAC, the switch fluorescence ratio is 1.01.

On to AGGTCGAAGG, for which the switch fluorescence ratio is 1.

Turning to GTAAGGTTCG, the switch fluorescence ratio worked out at 0.951.

Take AGATGAGGC: the switch fluorescence ratio worked out at 1.

Take CCGCTTAGTA: the switch fluorescence ratio came out at 1.37.

On to GGCTCGCCTC, for which the switch fluorescence ratio turned out to be 1.03.

As to TCGTCGCTG, the switch fluorescence ratio was 1.02.

With CGCCCGAGCT, the switch fluorescence ratio was determined as 1.22.

GTGGTTGGTC: the switch fluorescence ratio was 1.

As to AAGCCATTAA, the switch fluorescence ratio was 0.93.

For the sequence CCTCGAGCTA, the switch fluorescence ratio turned out to be 2.7.

As to ACTCTGCA, the switch fluorescence ratio was determined as 3.43.

On to TACCGGTA, for which the switch fluorescence ratio turned out to be 0.958.
